{"source": "paper PMC9911399", "about": "“Two distinct binding modes provide the RNA-binding protein RbFox with extraordinary sequence specificity”", "binders": {"B1": {"name": "GUAAUAC (DNA:RNA)", "RNA": "GGGAGACCGGAAUUCAGAUUGUCCGUAAUACUUAAAUCCCGUCGUAGCCACCA", "DNA 1": "CAATCTGAATTCCGGTCTCCC", "DNA 2": "TGGTGGCTACGACGGGATT"}, "B2": {"name": "ACCCGUU (DNA:RNA)", "RNA": "GGGAGACCGGAAUUCAGAUUGUCCACCCGUUUUAAAUCCCGUCGUAGCCACCA", "DNA 1": "CAATCTGAATTCCGGTCTCCC", "DNA 2": "TGGTGGCTACGACGGGATT"}, "B3": {"name": "GGCUUAC (DNA:RNA)", "RNA": "B1 RNA with U26G, A27C, A28U", "DNA 1": "CAATCTGAATTCCGGTCTCCC", "DNA 2": "TGGTGGCTACGACGGGATT"}, "B4": {"name": "CAUGACC (DNA:RNA)", "RNA": "B1 RNA with G25C, U26A, A27U, A28G, U29A, A30C", "DNA 1": "CAATCTGAATTCCGGTCTCCC", "DNA 2": "TGGTGGCTACGACGGGATT"}, "B5": {"name": "CUCACUG (DNA:RNA)", "RNA": "B2 RNA with A25C, C26U, C28A, G29C, U31G", "DNA 1": "CAATCTGAATTCCGGTCTCCC", "DNA 2": "TGGTGGCTACGACGGGATT"}, "B6": {"name": "AGCGUAU (DNA:RNA)", "RNA": "B2 RNA with C26G, C28G, G29U, U30A", "DNA 1": "CAATCTGAATTCCGGTCTCCC", "DNA 2": "TGGTGGCTACGACGGGATT"}, "B7": {"name": "CACCAGC (DNA:RNA)", "RNA": "B2 RNA with A25C, C26A, G29A, U30G, U31C", "DNA 1": "CAATCTGAATTCCGGTCTCCC", "DNA 2": "TGGTGGCTACGACGGGATT"}, "B8": {"name": "AGUUCUA (DNA:RNA)", "RNA": "B2 RNA with C26G, C27U, C28U, G29C, U31A", "DNA 1": "CAATCTGAATTCCGGTCTCCC", "DNA 2": "TGGTGGCTACGACGGGATT"}, "B9": {"name": "ACUCGUG (DNA:RNA)", "RNA": "B2 RNA with C27U, U31G", "DNA 1": "CAATCTGAATTCCGGTCTCCC", "DNA 2": "TGGTGGCTACGACGGGATT"}, "B10": {"name": "GAUAGGA (DNA:RNA)", "RNA": "B1 RNA with U26A, A27U, U29G, A30G, C31A", "DNA 1": "CAATCTGAATTCCGGTCTCCC", "DNA 2": "TGGTGGCTACGACGGGATT"}, "B11": {"name": "GCCGCAU (DNA:RNA)", "RNA": "B2 RNA with A25G, C28G, G29C, U30A", "DNA 1": "CAATCTGAATTCCGGTCTCCC", "DNA 2": "TGGTGGCTACGACGGGATT"}, "B12": {"name": "ACACCCG (DNA:RNA)", "RNA": "B2 RNA with C27A, G29C, U30C, U31G", "DNA 1": "CAATCTGAATTCCGGTCTCCC", "DNA 2": "TGGTGGCTACGACGGGATT"}, "B13": {"name": "GUUUCAA (DNA:RNA)", "RNA": "B1 RNA with A27U, A28U, U29C, C31A", "DNA 1": "CAATCTGAATTCCGGTCTCCC", "DNA 2": "TGGTGGCTACGACGGGATT"}, "B14": {"name": "UGACCUU (DNA:RNA)", "RNA": "B2 RNA with A25U, C26G, C27A, G29C", "DNA 1": "CAATCTGAATTCCGGTCTCCC", "DNA 2": "TGGTGGCTACGACGGGATT"}, "B15": {"name": "GGGCUAU (DNA:RNA)", "RNA": "B1 RNA with U26G, A27G, A28C, C31U", "DNA 1": "CAATCTGAATTCCGGTCTCCC", "DNA 2": "TGGTGGCTACGACGGGATT"}, "B16": {"name": "UGCCAUU (DNA:RNA)", "RNA": "B2 RNA with A25U, C26G, G29A", "DNA 1": "CAATCTGAATTCCGGTCTCCC", "DNA 2": "TGGTGGCTACGACGGGATT"}, "B17": {"name": "UAGUGUA (DNA:RNA)", "RNA": "B2 RNA with A25U, C26A, C27G, C28U, U31A", "DNA 1": "CAATCTGAATTCCGGTCTCCC", "DNA 2": "TGGTGGCTACGACGGGATT"}, "B18": {"name": "CUCUAUA (DNA:RNA)", "RNA": "B2 RNA with A25C, C26U, C28U, G29A, U31A", "DNA 1": "CAATCTGAATTCCGGTCTCCC", "DNA 2": "TGGTGGCTACGACGGGATT"}, "B19": {"name": "AAGGGAG (DNA:RNA)", "RNA": "B2 RNA with C26A, C27G, C28G, U30A, U31G", "DNA 1": "CAATCTGAATTCCGGTCTCCC", "DNA 2": "TGGTGGCTACGACGGGATT"}, "B20": {"name": "AUGCGAG (DNA:RNA)", "RNA": "B2 RNA with C26U, C27G, U30A, U31G", "DNA 1": "CAATCTGAATTCCGGTCTCCC", "DNA 2": "TGGTGGCTACGACGGGATT"}, "B21": {"name": "UGCGCUC (DNA:RNA)", "RNA": "B2 RNA with A25U, C26G, C28G, G29C, U31C", "DNA 1": "CAATCTGAATTCCGGTCTCCC", "DNA 2": "TGGTGGCTACGACGGGATT"}, "B22": {"name": "GUUAAAC (DNA:RNA)", "RNA": "B1 RNA with A27U, U29A", "DNA 1": "CAATCTGAATTCCGGTCTCCC", "DNA 2": "TGGTGGCTACGACGGGATT"}, "B23": {"name": "CUUUGCA (DNA:RNA)", "RNA": "B2 RNA with A25C, C26U, C27U, C28U, U30C, U31A", "DNA 1": "CAATCTGAATTCCGGTCTCCC", "DNA 2": "TGGTGGCTACGACGGGATT"}, "B24": {"name": "AGACCCC (DNA:RNA)", "RNA": "B2 RNA with C26G, C27A, G29C, U30C, U31C", "DNA 1": "CAATCTGAATTCCGGTCTCCC", "DNA 2": "TGGTGGCTACGACGGGATT"}, "B25": {"name": "AGCUACU (DNA:RNA)", "RNA": "B2 RNA with C26G, C28U, G29A, U30C", "DNA 1": "CAATCTGAATTCCGGTCTCCC", "DNA 2": "TGGTGGCTACGACGGGATT"}, "B26": {"name": "CGAUGGG (DNA:RNA)", "RNA": "B2 RNA with A25C, C26G, C27A, C28U, U30G, U31G", "DNA 1": "CAATCTGAATTCCGGTCTCCC", "DNA 2": "TGGTGGCTACGACGGGATT"}, "B27": {"name": "CGCGCCG (DNA:RNA)", "RNA": "B2 RNA with A25C, C26G, C28G, G29C, U30C, U31G", "DNA 1": "CAATCTGAATTCCGGTCTCCC", "DNA 2": "TGGTGGCTACGACGGGATT"}, "B28": {"name": "AACACAC (DNA:RNA)", "RNA": "B1 RNA with G25A, U26A, A27C, U29C", "DNA 1": "CAATCTGAATTCCGGTCTCCC", "DNA 2": "TGGTGGCTACGACGGGATT"}, "B29": {"name": "UGGAGGA (DNA:RNA)", "RNA": "B2 RNA with A25U, C26G, C27G, C28A, U30G, U31A", "DNA 1": "CAATCTGAATTCCGGTCTCCC", "DNA 2": "TGGTGGCTACGACGGGATT"}, "B30": {"name": "GAUAUGU (DNA:RNA)", "RNA": "B1 RNA with U26A, A27U, A30G, C31U", "DNA 1": "CAATCTGAATTCCGGTCTCCC", "DNA 2": "TGGTGGCTACGACGGGATT"}, "B31": {"name": "UGCACCG (DNA:RNA)", "RNA": "B2 RNA with A25U, C26G, C28A, G29C, U30C, U31G", "DNA 1": "CAATCTGAATTCCGGTCTCCC", "DNA 2": "TGGTGGCTACGACGGGATT"}}, "note": "Positions count from the first letter of the chain named. The list shows a part of the results.", "data": [{"biological_target": "T1, RBFOX1 RRM RbFoxmut (Fox-RRM*) (Homo sapiens, UniProt Q9NWB1 109-208, R118D;E147R;N151S;E152T)", "T1 sequence": "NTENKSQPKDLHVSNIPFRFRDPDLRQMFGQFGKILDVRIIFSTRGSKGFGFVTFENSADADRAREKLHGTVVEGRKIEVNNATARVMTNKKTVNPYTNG", "test": "EMSA; HiTS-Eq, 1 nM pool, 10 min; buffer printed only for the single-RNA assays: 10 mM Tris pH 7.5, 150 mM NaCl, 3.4 mM EDTA, 0.001% NP-40, 30 C", "details": "tags: His6 N-terminal (pET28a); label: 5' 32P", "summary_of_the_method": "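Purified RbFox RRM (wild type or mutant) was equilibrated for 10 min in 50 µL with 1 nM of a 5′-radiolabelled pool of RNA with 7 randomized nucleotides, its flanks annealed to DNA oligonucleotides, across increasing protein concentrations. Free RNA was separated by 8% native PAGE, excised, reverse-transcribed, PCR-barcoded and sequenced on an Illumina HiSeq 2500. Relative association constants came from read-count changes of each variant against the control reaction, normalised to the cognate motif.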", "values": [{"binder": "B1", "binding signal": "0.113 KA relative to UGCAUGU"}, {"binder": "B2", "binding signal": "0.0752 KA relative to UGCAUGU"}, {"binder": "B3", "binding signal": "0.0955 KA relative to UGCAUGU"}, {"binder": "B4", "binding signal": "0.0827 KA relative to UGCAUGU"}, {"binder": "B5", "binding signal": "0.13 KA relative to UGCAUGU"}, {"binder": "B6", "binding signal": "0.149 KA relative to UGCAUGU"}, {"binder": "B7", "binding signal": "0.0769 KA relative to UGCAUGU"}, {"binder": "B8", "binding signal": "0.107 KA relative to UGCAUGU"}, {"binder": "B9", "binding signal": "0.113 KA relative to UGCAUGU"}, {"binder": "B10", "binding signal": "0.0606 KA relative to UGCAUGU"}, {"binder": "B11", "binding signal": "0.109 KA relative to UGCAUGU"}, {"binder": "B12", "binding signal": "0.087 KA relative to UGCAUGU"}, {"binder": "B13", "binding signal": "0.0891 KA relative to UGCAUGU"}, {"binder": "B14", "binding signal": "0.0862 KA relative to UGCAUGU"}, {"binder": "B15", "binding signal": "0.104 KA relative to UGCAUGU"}, {"binder": "B16", "binding signal": "0.078 KA relative to UGCAUGU"}, {"binder": "B17", "binding signal": "0.215 KA relative to UGCAUGU"}, {"binder": "B18", "binding signal": "0.149 KA relative to UGCAUGU"}, {"binder": "B19", "binding signal": "0.101 KA relative to UGCAUGU"}, {"binder": "B20", "binding signal": "0.153 KA relative to UGCAUGU"}, {"binder": "B21", "binding signal": "0.0793 KA relative to UGCAUGU"}, {"binder": "B22", "binding signal": "0.0658 KA relative to UGCAUGU"}, {"binder": "B23", "binding signal": "0.246 KA relative to UGCAUGU"}, {"binder": "B24", "binding signal": "0.039 KA relative to UGCAUGU"}, {"binder": "B25", "binding signal": "0.1 KA relative to UGCAUGU"}, {"binder": "B26", "binding signal": "0.067 KA relative to UGCAUGU"}, {"binder": "B27", "binding signal": "0.112 KA relative to UGCAUGU"}, {"binder": "B28", "binding signal": "0.0626 KA relative to UGCAUGU"}, {"binder": "B29", "binding signal": "0.0784 KA relative to UGCAUGU"}, {"binder": "B30", "binding signal": "0.157 KA relative to UGCAUGU"}, {"binder": "B31", "binding signal": "0.223 KA relative to UGCAUGU"}]}]}
